In the supplement of paper PMC3334620:
The full ranking holds about 33,000 sequences; the median of “E-score (-0.5 to 0.5)” is about -0.035, and the highest 2% start at about 0.34. The list shows a part of the results.

The sequences below were run against T1, Mot3 (UniProt P54785) (assay: PBM E-score (8-mer binding enrichment) (E-score (-0.5 to 0.5)); higher = stronger / more preferred TF binding; most listed sequences are background and not binding sites). Settings: protein concentration: 200 nM; construct: GST-full length.
T1 sequence: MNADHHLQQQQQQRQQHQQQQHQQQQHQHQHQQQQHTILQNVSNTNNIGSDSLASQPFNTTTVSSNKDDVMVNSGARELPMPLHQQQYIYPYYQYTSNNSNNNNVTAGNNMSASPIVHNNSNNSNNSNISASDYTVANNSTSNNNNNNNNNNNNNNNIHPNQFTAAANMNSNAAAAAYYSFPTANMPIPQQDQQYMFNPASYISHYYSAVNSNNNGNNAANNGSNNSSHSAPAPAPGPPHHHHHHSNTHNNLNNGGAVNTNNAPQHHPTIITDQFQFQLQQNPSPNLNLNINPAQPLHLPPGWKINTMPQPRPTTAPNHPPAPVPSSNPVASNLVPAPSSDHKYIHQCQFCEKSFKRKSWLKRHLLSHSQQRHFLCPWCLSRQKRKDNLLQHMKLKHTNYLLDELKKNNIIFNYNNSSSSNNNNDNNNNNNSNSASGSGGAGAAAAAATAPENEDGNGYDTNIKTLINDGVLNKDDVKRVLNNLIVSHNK
In short: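 Yeast transcription factors carrying a GST tag, as full-length proteins or DNA-binding domains, were produced by PURExpress in vitro transcription/translation. About 100-200 nM protein was applied to universal all-10-mer Agilent arrays, double-stranded by primer extension on fresh or once-stripped slides. Bound protein was detected with fluorescent anti-GST, and scans were normalised with masliner. The Universal PBM Analysis Suite gave each ungapped eight-base word, pooled with its reverse complement, an E-score, a modified Wilcoxon-Mann-Whitney statistic.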

Sequence	PBM E-score
CGTACATC	0.0668
CAGCTTAG	-0.00307
ATTTGCAC	0.0484
ACCCGCAT	-0.0753
ATTTTGTG	0.0593
GGCGTCAA	0.123
CCACAGCG	-0.182
GCCCGCCA	-0.148
ACACATCG	0.235
CATAAACG	0.0373
CTGTCGCA	-0.144
ATAACGGC	-0.0831
ACCAGAAT	0.0833
ATTGCTTA	0.0157
CCGGATTA	-0.0226
AGCGGACC	-0.299
GGTGCTAC	0.0262
GCACATGC	0.155
GATTAGAC	-0.113
AGATACAA	0.107
GGGTCAGA	-0.332
CTCTACAA	0.169

Sequence	PBM E-score
AACCGCAC	0.00099
CACCGAGA	-0.07
CCAACTGC	-0.311
ACAGCGGA	-0.186
AAGCGGGA	-0.193
ACATGAAG	0.344
CCTTGATC	0.117
CGCCCCAG	-0.206
GAGCATGC	-0.0338
AGCGGCGG	-0.0738
AGCATATA	-0.154
TTATATAA	0.157
CACAATGG	0.0606
CATCATTA	0.216
GAGGTAAC	-0.0204
TATCTACA	0.281
CCGCCATC	-0.28
ACAAGAAC	0.225
CAGCACAA	0.132
GTTGATTA	0.224
CTAATCAG	-0.131
ACGGGGCT	-0.233

Sequence	PBM E-score
CCGCATTC	-0.198
ACCACTCA	-0.167
CCTCGCCC	-0.164
ATTACTCG	0.279
ATACTGTG	0.013
ATCATTAC	0.228
CAACCCTA	-0.0507
ATAGTCGC	-0.226
CGTGGCTC	-0.217
ATGTGAGA	-0.00499
CCGGCCTA	-0.056
CTTCTATC	-0.047
AAGCCAGC	0.00078
AGAACTTG	-0.013
AATGGCTG	-0.155
GTAGCTTA	-0.111
CATCCTCC	-0.151
CGCGGCCA	-0.213
GCGGAACA	-0.17
GGGCGACC	-0.398
CGGTGAAC	-0.0708
CAGCTAGG	-0.0566

Sequence	PBM E-score
CACGTCTG	0.0378
ACGTCACA	0.0936
CGATATAG	0.0679
CAACTGCA	0.0273
AAATACAC	0.37
CTTTCAAC	0.161
AACCTTGC	0.121
ACCCTTAC	-0.0328
CGATAAAA	-0.0825
CCTCAGGC	0.231
AAGACCGG	-0.247
AGGGTTAG	-0.0651
CGGACTCC	-0.105
GTCGTCCA	-0.0835
ACATATGA	0.131
AATGGGAC	-0.207
CACGATCG	0.0843
CAAATCGG	-0.285
CAACATAA	0.289
GTGAGCAC	-0.0528
CAGGTGCA	0.0796
AGTGCAAA	0.101

Sequence	PBM E-score
ACCCGTCA	-0.239
AGCGCCCC	-0.216
CACGCTCG	0.0432
CTTTGTTA	0.218
CTTGAGGA	-0.0875
ATTATGAC	0.0522
CGGGACCC	-0.0194
GTAAGTTA	0.162
ATCTGGTA	0.192
CAAGCATC	-0.0764
ACGTACGC	0.253
AGACCTCC	-0.413
CTCGTCTC	-0.289
ACAAGGAC	0.0766
CGTTATTA	0.167
AGGGAATA	0.0807
TATATATA	0.179
ATGCATGG	0.0636
GATGTCAA	0.144
ATTCCAGA	-0.185
CATGGGGA	-0.0458
GAGAATCA	-0.261
